The results in this text go back to the supplement of paper PMC8813932.

The structures appear in SMILES notation. Counter-ions that a name gives are not always drawn. ± gives the standard deviation of the averaged measurements. The list shows a part of the results. Repeats are few or missing, and single values can be far off.

Among the test systems are OVCAR4; Ov4Carbo; Ov4Cis.
Holding throughout (assay): log2 surviving fraction relative to plate median (drug vs vehicle, or drug+dl922-947 vs dl922-947 alone); ovarian cancer lines: OVCAR4 is platinum-sensitive while Ov4Cis resists cisplatin and Ov4Carbo carboplatin; higher = more cell survival
Common to all, as to conditions: compound concentration: 10 uM, 192 h

Setting [1] is: dl922-947 oncolytic adenovirus co-treatment: MOI 10.
The mark [2] stands for this setting: dl922-947 oncolytic adenovirus co-treatment: none.

Turning to `CCOc1nc2cccc(C(=O)OC(C)OC(=O)OC3CCCCC3)c2n1Cc1ccc(-c2ccccc2-c2nn[nH]n2)cc1` (stereo not drawn) [Candesartan cilexetil (Atacand)], the log2 surviving fraction with OVCAR4 (setting [1]) is -0.101 ± 0.57; in the test with OVCAR4 (setting [2]), -0.25 ± 0.83; with Ov4Carbo (setting [1]), -0.076; in the test with Ov4Carbo (setting [2]) it was -0.946; in the test with Ov4Cis (setting [1]) it was 0.221; in the test on Ov4Cis (setting [2]), -0.378.
`CN1CCC(=C2c3ccccc3C=Cc3ccccc32)CC1` [Cyproheptadine HCl (Periactin)]: the log2 surviving fraction in the test on OVCAR4 (setting [1]) is -2.1 ± 0.7; with OVCAR4 (setting [2]) it was -1.69 ± 1.6; in the test with Ov4Carbo (setting [1]) it was -3.11; with Ov4Carbo (setting [2]), -1.13; in the test on Ov4Cis (setting [1]) it was -4.36; in the test on Ov4Cis (setting [2]), -2.76.
On to `CCCc1nn(C)c2c(=O)[nH]c(-c3cc(S(=O)(=O)N4CCN(C)CC4)ccc3OCC)nc12` [Sildenafil citrate], for which the log2 surviving fraction with OVCAR4 (setting [1]) is 0.505 ± 0.23; in the test on OVCAR4 (setting [2]), 0.718 ± 1.2; with Ov4Carbo (setting [1]), -0.0668; in the test on Ov4Carbo (setting [2]) it was 1.07; with Ov4Cis (setting [1]) it was 1.25; in the test on Ov4Cis (setting [2]), 1.8.
For `Nc1cccc2c1C(=O)N(C1CCC(=O)NC1=O)C2=O` (stereo not drawn) [Pomalidomide], the log2 surviving fraction is 0.385 ± 0.091 in the test on OVCAR4 (setting [1]); 0.495 ± 0.2 in the test with OVCAR4 (setting [2]); -0.041 with Ov4Carbo (setting [1]); 0.0116 in the test on Ov4Carbo (setting [2]); 0.917 with Ov4Cis (setting [1]); 0.832 in the test on Ov4Cis (setting [2]).
On to `CC(=O)Oc1ccccc1C(=O)Nc1ncc([N+](=O)[O-])s1` [Nitazoxanide (Alinia, Annita)], for which the log2 surviving fraction is -0.885 ± 0.13 in the test on OVCAR4 (setting [1]); -0.687 ± 1.3 in the test with OVCAR4 (setting [2]); 1.13 with Ov4Carbo (setting [1]); -0.268 with Ov4Carbo (setting [2]); 0.266 with Ov4Cis (setting [1]); -0.754 in the test on Ov4Cis (setting [2]).
`CCCNC(=O)NS(=O)(=O)c1ccc(Cl)cc1` [Chlorpropamide]: the log2 surviving fraction in the test on OVCAR4 (setting [1]) is 0.117 ± 0.16; with OVCAR4 (setting [2]), -0.212 ± 0.99; with Ov4Carbo (setting [1]), 1.18; in the test on Ov4Carbo (setting [2]) it was 0.584; with Ov4Cis (setting [1]), 0.504; in the test with Ov4Cis (setting [2]), 0.256.
With `COc1cc(C(=O)NC2CCCNC2)cc(OC)c1OC` (stereo not drawn) [Troxipide], the log2 surviving fraction with OVCAR4 (setting [1]) is 0.503 ± 0.96; with OVCAR4 (setting [2]), 1.13 ± 0.82; in the test with Ov4Carbo (setting [1]), 0.438; with Ov4Carbo (setting [2]), 0.265; in the test with Ov4Cis (setting [1]), 0.427; with Ov4Cis (setting [2]) it was -0.0538.
As for `CNC(=O)c1ccccc1Sc1ccc2c(/C=C/c3ccccn3)n[nH]c2c1` [Axitinib], the log2 surviving fraction in the test on OVCAR4 (setting [1]) is -1.41 ± 0.89; in the test with OVCAR4 (setting [2]), -0.766 ± 1.7; in the test with Ov4Carbo (setting [1]), -4.46; in the test on Ov4Carbo (setting [2]) it was -0.686; in the test with Ov4Cis (setting [1]) it was -0.641; with Ov4Cis (setting [2]) it was 0.295.
For `CNS(=O)(=O)Cc1ccc2[nH]cc(CCN(C)C)c2c1` [Sumatriptan succinate], the log2 surviving fraction in the test with OVCAR4 (setting [1]) is 0.717 ± 0.11; with OVCAR4 (setting [2]), 0.477 ± 0.73; with Ov4Carbo (setting [1]) it was 1.31; with Ov4Carbo (setting [2]), 1.47; in the test with Ov4Cis (setting [1]) it was 0.974; with Ov4Cis (setting [2]), 2.13.
For `OCCN(CCO)c1nc(N2CCCCC2)c2nc(N(CCO)CCO)nc(N3CCCCC3)c2n1` [Dipyridamole (Persantine)], the log2 surviving fraction was -0.407 ± 0.31 in the test with OVCAR4 (setting [1]); 0.371 ± 0.42 with OVCAR4 (setting [2]); -0.0867 with Ov4Carbo (setting [1]); -1.52 in the test on Ov4Carbo (setting [2]); 0.184 in the test with Ov4Cis (setting [1]); -0.474 with Ov4Cis (setting [2]).
For the compound `CC(NCCc1ccc(O)cc1)C(O)c1ccc(O)cc1` (stereo not drawn) [Ritodrine hydrochloride (Yutopar)], the log2 surviving fraction in the test with OVCAR4 (setting [1]) was -0.423 ± 0.52; in the test on OVCAR4 (setting [2]), -0.157 ± 0.5; in the test with Ov4Carbo (setting [1]), -0.249; in the test with Ov4Carbo (setting [2]), 0.359; with Ov4Cis (setting [1]), -0.41; in the test with Ov4Cis (setting [2]), -0.273.
Turning to `CC(=O)OCC(=O)[C@@]12N=C(C)O[C@@H]1C[C@H]1[C@@H]3CCC4=CC(=O)C=C[C@]4(C)[C@H]3[C@@H](O)C[C@@]12C` [Deflazacort (Calcort)], the log2 surviving fraction is 0.973 ± 0.26 with OVCAR4 (setting [1]); -0.142 ± 0.23 with OVCAR4 (setting [2]); 0.838 with Ov4Carbo (setting [1]); 0.0229 with Ov4Carbo (setting [2]); 1.5 with Ov4Cis (setting [1]); -1.66 in the test with Ov4Cis (setting [2]).
As to `Cc1ccc(Nc2nccc(N(C)c3ccc4c(C)n(C)nc4c3)n2)cc1S(N)(=O)=O` [Pazopanib HCl], the log2 surviving fraction was -0.227 ± 0.99 with OVCAR4 (setting [1]); -0.836 ± 0.73 in the test with OVCAR4 (setting [2]); -1.51 in the test with Ov4Carbo (setting [1]); -3.43 in the test with Ov4Carbo (setting [2]); -0.761 with Ov4Cis (setting [1]); -1.44 with Ov4Cis (setting [2]).
For `Cc1ccccc1C(OCCN(C)C)c1ccccc1` (stereo not drawn) [Orphenadrine citrate (Norflex)], the log2 surviving fraction with OVCAR4 (setting [1]) is -0.594 ± 0.55; in the test with OVCAR4 (setting [2]), 0.3 ± 0.86; with Ov4Carbo (setting [1]), -0.962; in the test on Ov4Carbo (setting [2]), 0.254; in the test with Ov4Cis (setting [1]) it was -0.303; in the test with Ov4Cis (setting [2]), 0.947.
`C[C@@](Cc1ccc(O)c(O)c1)(NN)C(=O)O` [Carbidopa]: the log2 surviving fraction was -0.294 ± 0.32 in the test on OVCAR4 (setting [1]); -0.3 ± 0.16 in the test with OVCAR4 (setting [2]); -0.267 in the test on Ov4Carbo (setting [1]); -1.41 with Ov4Carbo (setting [2]); -0.186 in the test with Ov4Cis (setting [1]); -0.233 in the test with Ov4Cis (setting [2]).
As to `CO[C@H]1C(=O)[C@]2(C)[C@@H](OC)C[C@H]3OC[C@@]3(OC(C)=O)[C@H]2[C@H](OC(=O)c2ccccc2)[C@]2(O)C[C@H](OC(=O)[C@H](O)[C@@H](NC(=O)OC(C)(C)C)c3ccccc3)C(C)=C1C2(C)C` [Cabazitaxel (Jevtana)], the log2 surviving fraction in the test with OVCAR4 (setting [1]) was -5.26 ± 0.42; in the test with OVCAR4 (setting [2]), -7.01 ± 3.2; with Ov4Carbo (setting [1]), -3.97; in the test with Ov4Carbo (setting [2]), -6.61; with Ov4Cis (setting [1]), -4.54; in the test with Ov4Cis (setting [2]) it was -6.57.
As to `CCC(CC)[C@H](NC(C)=O)[C@@H]1[C@H](O)[C@@H](C(=O)O)C[C@H]1NC(=N)N` [Peramivir Trihydrate], the log2 surviving fraction in the test with OVCAR4 (setting [1]) was -0.252 ± 1.5; in the test on OVCAR4 (setting [2]), 0.251 ± 0.28; with Ov4Carbo (setting [1]), 0.171; in the test on Ov4Carbo (setting [2]) it was -0.295; in the test with Ov4Cis (setting [1]) it was 0.074; in the test with Ov4Cis (setting [2]), 0.722.
As for `Cc1ccc(C)c(OCCCC(C)(C)C(=O)O)c1` [Gemfibrozil (Lopid)], the log2 surviving fraction is 0.236 ± 1.1 with OVCAR4 (setting [1]); -0.293 ± 0.24 in the test with OVCAR4 (setting [2]); -0.708 in the test with Ov4Carbo (setting [1]); -1.44 with Ov4Carbo (setting [2]); -0.0827 in the test with Ov4Cis (setting [1]); 0.0231 in the test with Ov4Cis (setting [2]).
Consider `C=CC[N+]1([C@H]2C[C@H]3[C@@H]4CC[C@H]5C[C@H](O)[C@@H](N6CCOCC6)C[C@]5(C)[C@H]4CC[C@]3(C)[C@H]2OC(C)=O)CCCC1` [Rocuronium bromide], for which the log2 surviving fraction in the test on OVCAR4 (setting [1]) is -0.356 ± 0.65; with OVCAR4 (setting [2]), -0.277 ± 0.25; in the test with Ov4Carbo (setting [1]) it was 1.62; in the test on Ov4Carbo (setting [2]), 1.43; in the test on Ov4Cis (setting [1]), -0.726; in the test on Ov4Cis (setting [2]), -0.352.
With `CNC(=O)Oc1ccc2c(c1)[C@]1(C)CCN(C)[C@@H]1N2C` [Physostigmine Salicylate], the log2 surviving fraction in the test with OVCAR4 (setting [1]) was 0.243 ± 0.25; in the test on OVCAR4 (setting [2]) it was -0.982 ± 1.7; with Ov4Carbo (setting [1]) it was 1.51; in the test with Ov4Carbo (setting [2]) it was -0.515; in the test with Ov4Cis (setting [1]), -1.01; in the test on Ov4Cis (setting [2]), 0.409.
Consider `O=C(O)c1cc(=O)c2ccccc2o1` [Chromocarb], for which the log2 surviving fraction with OVCAR4 (setting [1]) is -0.834 ± 0.073; in the test with OVCAR4 (setting [2]), 0.142 ± 1.1; with Ov4Carbo (setting [1]), -0.403; in the test with Ov4Carbo (setting [2]), 0.168; in the test with Ov4Cis (setting [1]), -1.13; in the test with Ov4Cis (setting [2]), -0.799.
For the compound `N=C(N)N/N=C/c1c(Cl)cccc1Cl` [Guanabenz acetate], the log2 surviving fraction with OVCAR4 (setting [1]) is -0.277 ± 0.24; in the test on OVCAR4 (setting [2]) it was -1.15 ± 0.87; with Ov4Carbo (setting [1]), 0.471; in the test on Ov4Carbo (setting [2]) it was -1.45; with Ov4Cis (setting [1]), -0.6; in the test on Ov4Cis (setting [2]), 0.00473.
Regarding `N[C@@H](Cc1cc(I)c(Oc2ccc(O)c(I)c2)c(I)c1)C(=O)O` [Liothyronine Sodium], the log2 surviving fraction was -0.919 ± 0.84 in the test with OVCAR4 (setting [1]); 0.0158 ± 0.13 with OVCAR4 (setting [2]); -0.913 with Ov4Carbo (setting [1]); -0.512 in the test on Ov4Carbo (setting [2]); 0.447 with Ov4Cis (setting [1]); -0.488 in the test with Ov4Cis (setting [2]).
